This is an account of results in patent US20090143279A1 (priority 2007, published 2009).

Where two headings read alike, the source gives them in different places. Where a SMILES comes first, the peptide text is derived from it.

The subject of this assay is cellular ATP levels. The note with it: for ATP (composite Z-score): normalized score vs mock-treated (DMSO) wells.
The mark [1] stands for this setting: composite Z-score vs DMSO wells, Conc 20 μM.
Where [2] appears, read: normalized composite Z-score vs mock-treated (DMSO) wells, Conc 20 μM.
Setting [3] is: composite Z-score vs mock-treated (DMSO) wells, Conc 20 μM.
Where [4] appears, read: composite Z-score vs DMSO, Conc 20 μM.

With `NCCCC(=O)O` [gamma-aminobutyric acid], the ATP under setting [1] is recorded as −0.314.

As for `COC(=O)c1c(OC)cc2c(c1C)Oc1c(Cl)c(O)c(Cl)c(C)c1C(=O)O2` [gangaleoidin], under setting [2], the ATP is recorded as −1.768.

Under setting [3], `CC(=O)O[C@@H]1CC2C(C)(C)[C@H](O)C=C[C@]2(C)C2CC[C@@]3(C)[C@H](c4ccoc4)OC(=O)C4OC43[C@@]21C` (stereo partly shown) [gedunol] displayed an ATP of 0.637.

With `COc1cc(O)c2c(=O)cc(-c3ccc(O)cc3)oc2c1` [genkwanin], the “ATP (composite Z-score)” value (Conc 20 μM) worked out at 0.957.

Compound `C=C1C[C@]23C[C@@]1(O)CC[C@H]2[C@@]12C=C[C@H](O)[C@@](C)(C(=O)O1)[C@H]2[C@@H]3C(=O)O` [gibberellic acid] came in with an ATP under setting [3] of 0.413.

`COc1cc(O)c2c(=O)cc(-c3ccc(OC)c(-c4c(O)cc(O)c5c(=O)cc(-c6ccc(O)cc6)oc45)c3)oc2c1` [ginkgetin]: under setting [4], the ATP is on record as −2.623.

Consider `C[C@@H]1C(=O)O[C@H]2C[C@@]34[C@H]5C[C@@H](C(C)(C)C)[C@]36[C@@H](OC(=O)[C@@H]6O)O[C@@]4(C(=O)O5)[C@]21O` [ginkgolide A], for which the ATP under setting [2] was −0.205.

Compound `CC(=O)O[C@H]1CC[C@@]2(C)[C@H](CC[C@@H]3[C@@H]2CC[C@]2(C)[C@@H](C4=CC(=O)OC4)[C@@H](OC(C)=O)C[C@]32O)C1` [gitoxigenin diacetate] displayed an ATP under setting [4] of 1.895.

As to `OC[C@@H](O)[C@@H](OC1O[C@H](CO)[C@@H](O)[C@H](O)[C@H]1O)[C@H](O)[C@@H](O)CO` (stereo partly shown) [glucitol-4-gucopyanoside], the “ATP (composite Z-score)” value (Conc 20 μM) is given as −0.172.

On to `CC(C)C[C@H](NC(=O)CN)C(=O)N[C@@H](Cc1ccccc1)C(=O)O` [glycylleucylphenylalanine] (H-Gly-Leu-Phe-OH), for which, under setting [4], the ATP stood at 0.418.

For the compound `CC1(C)[C@@H](O[C@H]2O[C@H](C(=O)O)[C@@H](O)[C@H](O)[C@H]2O[C@@H]2O[C@H](C(=O)O)[C@@H](O)[C@H](O)[C@H]2O)CC[C@]2(C)[C@H]3C(=O)C=C4[C@@H]5C[C@@](C)(C(=O)O)CC[C@]5(C)CC[C@@]4(C)[C@]3(C)CC[C@@H]12` [glycyrrhizic acid], under setting [4], the ATP is given as 1.266.

Consider `COc1cc(OC)c2c(c1Cl)O[C@@]1(C(=O)CC(=O)C[C@H]1C)C2=O` [griseofulvic acid, reference compound], for which the ATP is −1.279 (Table 4, C2C12 myotubes, 48 h, composite Z-score) and −1.279 under setting [3].

Under setting [4], `N=C(N)N/N=C/c1c(Cl)cccc1Cl` [guanabenz] returned an ATP of 1.035.

Take `N=C(N)N.N=C(N)N.O=C(O)O` [guanidine carbonate]: the ATP under setting [4] is recorded as −0.171.

As to `Cc1cc(OC(=O)c2c(C)cc(OC(=O)c3c(C)cc(O)cc3O)cc2O)cc(O)c1C(=O)O` [gyrophoric acid], the ATP under setting [2] amounted to 0.125.

For the compound `CCOC(=O)c1c(C)cc(O)c(C=O)c1O` [haematommic acid, ethyl ester], the ATP under setting [3] is −0.324.

As for `Cc1cc(O)c(C=O)c(O)c1C(=O)O` [haematommic acid], the ATP under setting [4] is recorded as 2.409.

As to `CC1=C(CCC(=O)O)c2cc3[nH]c(cc4nc(cc5[nH]c(cc1n2)c(C)c5C(C)O)C(C)=C4C(C)O)c(C)c3CCC(=O)O` (stereo not shown) [haematoporphyrin], the ATP under setting [4] is listed as −0.917.

For the compound `O=C(O)c1ccc(S(=O)(=O)N(Cl)Cl)cc1` [halazone], under setting [1], the ATP is −0.116.

As for `C[C@@H]1O[C@@H](O[C@H]2[C@H](O[C@H]3CC[C@@]4(C)[C@@H](CC[C@]5(C)[C@@H]4CC=C4[C@@H]6CC(C)(C)CC[C@]6(C(=O)O[C@@H]6O[C@H](CO[C@@H]7O[C@H](CO)[C@@H](O[C@@H]8O[C@@H](C)[C@H](O)[C@@H](O)[C@H]8O)[C@H](O)[C@H]7O)[C@@H](O)[C@H](O)[C@H]6O)CC[C@]45C)[C@]3(C)CO)OC[C@H](O)[C@@H]2O)[C@H](O)[C@H](O)[C@H]1O` [hederacoside C], the “ATP (composite Z-score)” value (Conc 20 μM) is reported as 0.362.

The compound `CC1(C)CC[C@]2(C(=O)O)CC[C@]3(C)C(=CC[C@@H]4[C@@]5(C)CC[C@H](O)[C@@](C)(CO)[C@@H]5CC[C@]43C)[C@@H]2C1` [hederagenin] showed an ATP of 0.064.
